The record followed here is US20260200947A1, “FUSED CYCLIC COMPOUNDS AND USE THEREOF” (Jacobio Pharmaceuticals Co., Ltd., priority 2022, published 2026).

One assay concerns the target GDP-KRAS G12D (Homo sapiens, UniProt P01116, G12D). The assay can be described thus: biochemical.
The target of a further assay is GDP-KRAS G12V (Homo sapiens, UniProt P01116, G12V). As to the kind of experiment: biochemical.

Broadly, the IC50 is the point on the concentration scale where inhibition reaches its midpoint. Lower therefore signals greater potency.

As for `C#Cc1c(F)ccc2cc(N)cc(-c3nc4c5c(nc(OC[C@@]67CCCN6C[C@H](F)C7)nc5c3F)N3[C@@H](C)CCCC[C@H]3N4C)c12` [Compound 88], the IC50 was 0.643 nM against GDP-KRAS G12D and 0.579 nM against GDP-KRAS G12V.

Regarding `N#Cc1c(N)sc2c(F)ccc(-c3nc4c5c(nc(OC[C@@]67CCCN6C[C@H](F)C7)nc5c3F)N3CCCOC[C@H]3CO4)c12` [Compound 160], the IC50 on GDP-KRAS G12D was 2.36 nM; on GDP-KRAS G12V, 3.31 nM.

As for `C#Cc1c(F)ccc2cc(N)cc(-c3cc4c5c(nc(OC[C@@]67CCCN6C[C@H](F)C7)nc5c3F)N3[C@@H](C)CCOC[C@H]3N4C)c12` [Compound 44], the IC50 stood at 2.07 nM against GDP-KRAS G12D and 0.635 nM against GDP-KRAS G12V.

For the molecule `C#Cc1c(F)ccc2cc(N)cc(-c3nc4c5c(nc(OC[C@@]67CCCN6C[C@H](F)C7)nc5c3F)N3CC(CF)COCC3N4C)c12` (stereo partly drawn) [Compound 124], the IC50 came out at 8.98 nM against GDP-KRAS G12D and 6.68 nM against GDP-KRAS G12V.

Consider `[2H]C#Cc1c(F)ccc2cc(N)cc(-c3nc4c5c(nc(OCC67CCCN6CC(F)C7)nc5c3F)N3CCCOCC3N4C)c12` (stereo not drawn) [Compound 109], for which the values for the 50% inhibitory concentration (IC50) at GDP-KRAS G12D and at GDP-KRAS G12V were 0.921 nM and 0.851 nM, respectively.

`C#Cc1c(F)ccc2cc(N)cc(-c3nc4c5c(nc(OCC6(CN7CCOCC7)CC6)nc5c3F)N3CCCOC[C@H]3N4C)c12` [Compound 74]: the IC50 on GDP-KRAS G12D came to 3.4 nM; against GDP-KRAS G12V, 2.07 nM.

Turning to `C#Cc1c(F)ccc2cc(N)cc(-c3nc4c5c(nc(OC[C@@]67CCCN6C[C@H](F)C7)nc5c3F)N3CCC=CC3N4C)c12` (stereo partly drawn) [Compound 71], the results for the IC50 on GDP-KRAS G12D and against GDP-KRAS G12V were 1.55 nM and 2.23 nM, respectively.

Turning to `CN(C)CC1(COc2nc3c4c(nc(-c5ccc(F)c6sc(N)c(C#N)c56)c(F)c4n2)N(C)[C@@H]2COCCCN32)CC1(F)F` (stereo partly drawn) [Compound 164], the IC50 against GDP-KRAS G12D is 4.68 nM; at GDP-KRAS G12V, 4.18 nM.

Regarding `C#Cc1c(F)ccc2cc(N)cc(-c3nc4c5c(nc(OC[C@@]67CCCN6C[C@H](F)C7)nc5c3F)N3CC(C#N)COCC3N4C)c12` (stereo partly drawn) [Compound 172], the results for the IC50 against GDP-KRAS G12D and on GDP-KRAS G12V were 12.9 nM and 1.04 nM, respectively.

On to `C#Cc1c(F)ccc2cc(N)cc(-c3nc4c5c(nc(OC[C@@]67CCCN6C[C@H](F)C7)nc5c3F)N3CC(F)CCCC3N4C)c12` (stereo partly drawn) [Compound 47], for which the values for the IC50 at GDP-KRAS G12D and at GDP-KRAS G12V were 1.25 nM and 0.945 nM, respectively.

In the case of `C#Cc1c(F)ccc2cc(N)cc(-c3nc4c5c(nc(OC[C@@]67CCCN6C[C@H](F)C7)nc5c3F)N3CCCC/C(=C\F)C3N4C)c12` (stereo partly drawn) [Compound 85], the results for the IC50 against GDP-KRAS G12D and at GDP-KRAS G12V were 8.56 nM and 3.81 nM, respectively.

As to `C#Cc1cccc2cc(N)cc(-c3nc4c5c(nc(OC[C@@]67CCCN6C[C@H](F)C7)nc5c3F)N3CCCOC[C@H]3N4C)c12` [Compound 51], the IC50 came out at 0.792 nM on GDP-KRAS G12D and 0.842 nM at GDP-KRAS G12V.

On to `C#Cc1c(F)ccc2cc(N)cc(-c3nc4c5c(nc(OC[C@@]67CCCN6C[C@H](F)C7)nc5c3F)N3CCCOCC3N4C)c12` (stereo partly drawn) [Compound 10], for which the figures for the IC50 on GDP-KRAS G12D and against GDP-KRAS G12V were 2.51 nM and 2.01 nM, respectively.

`CSc1cccc2cc(N)cc(-c3nc4c5c(nc(OC[C@@]67CCCN6C[C@H](F)C7)nc5c3F)N3CCCOC[C@H]3N4C)c12` [Compound 149]: the IC50 came out at 10.2 nM against GDP-KRAS G12D and 5.08 nM at GDP-KRAS G12V.

Regarding `C#Cc1c(F)ccc2cc(N)cc(-c3nc4c5c(nc(OCC67C[C@@H](F)CN6CC6(CC6)C7)nc5c3F)N3CCCOC[C@H]3CO4)c12` (stereo partly drawn) [Compound 33], the IC50 at GDP-KRAS G12D stood at 0.866 nM; against GDP-KRAS G12V, 0.89 nM.

As for `C#Cc1c(F)ccc2cc(N)cc(-c3nc4c5c(nc(OC[C@@]67CCCN6C[C@H](F)C7)nc5c3F)N3CCCCC(C)C3N4C)c12` (stereo partly drawn) [Compound 121], the IC50 stood at 2.94 nM against GDP-KRAS G12D and 3.89 nM at GDP-KRAS G12V.

For the molecule `C#Cc1c(F)ccc2cc(N)cc(-c3nc4c5c(nc(OC[C@@]67CCCN6C[C@H](F)C7)nc5c3F)N3[C@@H](COCC[C@@H]3C3CC3)CO4)c12` [Compound 64], the IC50 turned out to be 0.367 nM against GDP-KRAS G12D and 0.259 nM on GDP-KRAS G12V.

As to `C#Cc1c(F)ccc2cc(N)cc(-c3nc4c5c(nc(OC[C@@]67CCCN6C[C@H](F)C7)nc5c3F)N3CCCOC[C@H]3C4=C)c12` [Compound 21], the IC50 against GDP-KRAS G12D is 0.767 nM; against GDP-KRAS G12V, 0.53 nM.
